Measurements: patent publication US9662372B2 (priority 2013, dated 2017)

How the values were obtained:
CHO-k1 cells [1] = assay: PM substrate control: influence of substrate on CHO-k1 dye reduction rate; format: cell-based
CHO-k1 cells [2] = assay: Toxicity of the polypeptides alone to the cultured cells; format: cell-based; conditions: for Cytotoxicity when given alone: at higher concentrations

O=C[C@H](O)[C@@H](O)[C@H](O)[C@H](O)CO [D-glucose]
Ratio (panel average rate divided by well average rate) (CHO-k1 cells [1]; PM1 C9): 0.9547
Dye reduction rate, substrate control (CHO-k1 cells [1]; PM1 C9, no C. difficile, panel average 74.93): 78.48

poly-D-lysine
Cytotoxicity when given alone (CHO-k1 cells [2]): some cytotoxicity

protamine
Toxicity to the cultured cells (CHO-k1 cells [2]; compared with poly-L-lysine and poly-D-lysine): much less toxic

poly-L-lysine
Cytotoxicity when given alone (CHO-k1 cells [2]): some cytotoxicity
